Some of the results follow.

In the assay the target is T1, MBP-FoxP1dN (Mus musculus, UniProt P58462 326-579).
T1 sequence: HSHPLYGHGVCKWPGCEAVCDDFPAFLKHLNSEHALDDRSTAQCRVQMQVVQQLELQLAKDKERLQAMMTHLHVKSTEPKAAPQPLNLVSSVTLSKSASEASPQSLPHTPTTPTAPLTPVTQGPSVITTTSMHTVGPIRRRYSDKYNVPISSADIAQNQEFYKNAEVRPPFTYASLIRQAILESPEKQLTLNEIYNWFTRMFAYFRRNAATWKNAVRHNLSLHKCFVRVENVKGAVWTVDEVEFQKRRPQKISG
The assay is described as follows: PD-seq (MBP pull-down with sequencing); 20 mM Tris-HCl pH 7.5, 100 mM NaCl, 1.5 mM MgCl2, 0.4 uM protein, 0.1 uM dsDNA library, 30 min, room temperature, amylose pull-down; high values mean tight binding. To be noted: protein: recombinant; tags: His6-MBP; chain copies: 2; dsDNA, one strand shown. Put shortly: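 E. coli-expressed mouse FoxP3 or FoxP1 fragment, N-terminus removed and tagged with His6-MBP, was used at 0.4 µM against 0.1 µM of a Klenow-filled degenerate double-stranded DNA library. After 30 min at room temperature in Tris pH 7.5 buffer with NaCl and MgCl2, complexes were pulled down on amylose resin and washed three times. Binding is pull-down over input reads-per-million enrichment from pooled replicates of the proteinase K-released, PCR-barcoded, Illumina-sequenced DNA.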
Regarding “GATGATTGTTCTCCCAGCTGATGAATTAGAAGGGTCGAGTAAACAAATTTTCCTAATCTTTCTGTTCAAGCGCCATCTAC”, the binding signal was 0.915 RPM ratio (pull-down/input).

“GATGATTGTTCTCCCAGCTGATGAATTGGTGACGTCGAGTAAACAAATTTTCCTAATCTTTCTGTTCAAGCGCCATCTAC”: the binding signal is 0.991 RPM ratio (pull-down/input).

In the case of “GATGATTGTTCTCCCAGCTGATGAATTTATGGTCTCGAGTAAACAAATTTTCCTAATCTTTCTGTTCAAGCGCCATCTAC”, the binding signal was 1.03 RPM ratio (pull-down/input).

Regarding “GATGATTGTTCTCCCAGCTGATGAATTAATACTCTCGAGTAAACAAATTTTCCTAATCTTTCTGTTCAAGCGCCATCTAC”, the binding signal was 0.985 RPM ratio (pull-down/input).

In the case of “GATGATTGTTCTCCCAGCTGATGAATTCCTTTTGTCGAGTAAACAAATTTTCCTAATCTTTCTGTTCAAGCGCCATCTAC”, the binding signal was 0.864 RPM ratio (pull-down/input).

For the sequence “GATGATTGTTCTCCCAGCTGATGAATTTTCTTGATCGAGTAAACAAATTTTCCTAATCTTTCTGTTCAAGCGCCATCTAC”, the binding signal is 0.94 RPM ratio (pull-down/input).

As to “GATGATTGTTCTCCCAGCTGATGAATTACGGGCCTCGAGTAAACAAATTTTCCTAATCTTTCTGTTCAAGCGCCATCTAC”, the binding signal is 0.904 RPM ratio (pull-down/input).

As for “GATGATTGTTCTCCCAGCTGATGAATTAAAATGTTCGAGTAAACAAATTTTCCTAATCTTTCTGTTCAAGCGCCATCTAC”, the binding signal was 0.98 RPM ratio (pull-down/input).

In the case of “GATGATTGTTCTCCCAGCTGATGAATTGGCGGGGTCGAGTAAACAAATTTTCCTAATCTTTCTGTTCAAGCGCCATCTAC”, the binding signal is 0.738 RPM ratio (pull-down/input).

In the case of “GATGATTGTTCTCCCAGCTGATGAATTGGTAAAATCGAGTAAACAAATTTTCCTAATCTTTCTGTTCAAGCGCCATCTAC”, the binding signal was 1.1 RPM ratio (pull-down/input).

In the case of “GATGATTGTTCTCCCAGCTGATGAATTTCCATTCTCGAGTAAACAAATTTTCCTAATCTTTCTGTTCAAGCGCCATCTAC”, the binding signal was 0.823 RPM ratio (pull-down/input).

As to “GATGATTGTTCTCCCAGCTGATGAATTTGGGACGTCGAGTAAACAAATTTTCCTAATCTTTCTGTTCAAGCGCCATCTAC”, the binding signal was 0.892 RPM ratio (pull-down/input).

Regarding “GATGATTGTTCTCCCAGCTGATGAATTGTTGAGGTCGAGTAAACAAATTTTCCTAATCTTTCTGTTCAAGCGCCATCTAC”, the binding signal was 1.03 RPM ratio (pull-down/input).

Turning to “GATGATTGTTCTCCCAGCTGATGAATTATATCGTTCGAGTAAACAAATTTTCCTAATCTTTCTGTTCAAGCGCCATCTAC”, the binding signal was 1.07 RPM ratio (pull-down/input).

On to “GATGATTGTTCTCCCAGCTGATGAATTTGGTACATCGAGTAAACAAATTTTCCTAATCTTTCTGTTCAAGCGCCATCTAC”, for which the binding signal is 1.15 RPM ratio (pull-down/input).

For “GATGATTGTTCTCCCAGCTGATGAATTCAAACCGTCGAGTAAACAAATTTTCCTAATCTTTCTGTTCAAGCGCCATCTAC”, the binding signal is 0.855 RPM ratio (pull-down/input).

Take “GATGATTGTTCTCCCAGCTGATGAATTATACCCTTCGAGTAAACAAATTTTCCTAATCTTTCTGTTCAAGCGCCATCTAC”: the binding signal was 0.942 RPM ratio (pull-down/input).

Regarding “GATGATTGTTCTCCCAGCTGATGAATTCCGTAAGTCGAGTAAACAAATTTTCCTAATCTTTCTGTTCAAGCGCCATCTAC”, the binding signal was 0.864 RPM ratio (pull-down/input).

For “GATGATTGTTCTCCCAGCTGATGAATTTTACAATTCGAGTAAACAAATTTTCCTAATCTTTCTGTTCAAGCGCCATCTAC”, the binding signal is 0.936 RPM ratio (pull-down/input).

With “GATGATTGTTCTCCCAGCTGATGAATTCGCTGACTCGAGTAAACAAATTTTCCTAATCTTTCTGTTCAAGCGCCATCTAC”, the binding signal was 0.87 RPM ratio (pull-down/input).

In the case of “GATGATTGTTCTCCCAGCTGATGAATTACGAGCATCGAGTAAACAAATTTTCCTAATCTTTCTGTTCAAGCGCCATCTAC”, the binding signal was 1.17 RPM ratio (pull-down/input).

On to “GATGATTGTTCTCCCAGCTGATGAATTACGTTCGTCGAGTAAACAAATTTTCCTAATCTTTCTGTTCAAGCGCCATCTAC”, for which the binding signal is 0.986 RPM ratio (pull-down/input).

Take “GATGATTGTTCTCCCAGCTGATGAATTACCCTTCTCGAGTAAACAAATTTTCCTAATCTTTCTGTTCAAGCGCCATCTAC”: the binding signal is 0.941 RPM ratio (pull-down/input).

Take “GATGATTGTTCTCCCAGCTGATGAATTAGACGCGTCGAGTAAACAAATTTTCCTAATCTTTCTGTTCAAGCGCCATCTAC”: the binding signal is 0.99 RPM ratio (pull-down/input).

Consider “GATGATTGTTCTCCCAGCTGATGAATTAGTATACTCGAGTAAACAAATTTTCCTAATCTTTCTGTTCAAGCGCCATCTAC”, for which the binding signal is 1.23 RPM ratio (pull-down/input).

As for “GATGATTGTTCTCCCAGCTGATGAATTACGAAGCTCGAGTAAACAAATTTTCCTAATCTTTCTGTTCAAGCGCCATCTAC”, the binding signal is 0.887 RPM ratio (pull-down/input).

As for “GATGATTGTTCTCCCAGCTGATGAATTTCGGACCTCGAGTAAACAAATTTTCCTAATCTTTCTGTTCAAGCGCCATCTAC”, the binding signal is 0.742 RPM ratio (pull-down/input).

As to “GATGATTGTTCTCCCAGCTGATGAATTAAGACCTTCGAGTAAACAAATTTTCCTAATCTTTCTGTTCAAGCGCCATCTAC”, the binding signal is 0.838 RPM ratio (pull-down/input).

As to “GATGATTGTTCTCCCAGCTGATGAATTCGTCCGCTCGAGTAAACAAATTTTCCTAATCTTTCTGTTCAAGCGCCATCTAC”, the binding signal was 0.79 RPM ratio (pull-down/input).

Consider “GATGATTGTTCTCCCAGCTGATGAATTGAGTCTCTCGAGTAAACAAATTTTCCTAATCTTTCTGTTCAAGCGCCATCTAC”, for which the binding signal was 0.782 RPM ratio (pull-down/input).

In the case of “GATGATTGTTCTCCCAGCTGATGAATTCTCCGAGTCGAGTAAACAAATTTTCCTAATCTTTCTGTTCAAGCGCCATCTAC”, the binding signal is 0.774 RPM ratio (pull-down/input).

As for “GATGATTGTTCTCCCAGCTGATGAATTCTCTAGTTCGAGTAAACAAATTTTCCTAATCTTTCTGTTCAAGCGCCATCTAC”, the binding signal is 0.948 RPM ratio (pull-down/input).

The values above are taken from publication PMC12820563, “FoxP3 forms a head-to-head dimer in vivo and stabilizes its multimerization on adjacent microsatellites”.
